Test results taken from PubChem BioAssay AID1745853 (National Center for Advancing Translational Sciences (NCATS), 2022).
“And” between values parts separate entries of the source, which are not always exact repeats. Equal entries are not always repeated. Some of the results follow. Shown are side measurements of this screen, not its main read-out; they come without a call.

How the values were obtained:
Assay in all cases: Primary Screen for Target Class Profiling of Small Molecule Inhibitors of Methyltransferases
[1] = target: Glycine N-methyltransferase (Homo sapiens) (UniProt Q14749); conditions: purified enzyme, MTase-Glo SAH luminescence; measured here: GNMT inhibition; at 40 µM; stronger effect = lower value
Summary of the method: (§1)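 Each enzyme was reacted with SAM and its substrate, with compounds tested once at 40 uM; SAH formed was read by MTase-Glo luminescence.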

[2] = target: Guanidinoacetate N-methyltransferase (Homo sapiens) (UniProt Q14353); conditions: purified enzyme, MTase-Glo SAH luminescence; measured here: GAMT inhibition; at 40 µM; stronger effect = lower value
Summary of the method: as §1

[3] = target: Histamine N-methyltransferase (Homo sapiens) (UniProt P50135); conditions: purified enzyme, MTase-Glo SAH luminescence; measured here: HNMT inhibition; at 40 µM; stronger effect = lower value
Summary of the method: as §1

[4] = target: Nicotinamide N-methyltransferase (Homo sapiens) (UniProt P40261); conditions: purified enzyme, MTase-Glo SAH luminescence; measured here: NNMT inhibition; at 40 µM; stronger effect = lower value
Summary of the method: as §1

[5] = target: Phenylethanolamine N-methyltransferase (Homo sapiens) (UniProt P11086); conditions: purified enzyme, MTase-Glo SAH luminescence; measured here: PNMT inhibition; at 40 µM; stronger effect = lower value
Summary of the method: as §1
% is set by controls: 0 for no effect and ±100 for the full control effect.

Structure (SMILES): CC1CCC2C(C)(C)C(O)CCC2(C)C12Cc1c(O)cc3c(c1O2)CN(C(CCC(N)=O)C(=O)O)C3=O (stereo not given)
- activity change, negative = inhibition [1]: -2.64%
- activity change, negative = inhibition [2]: -5.54%
- activity change, negative = inhibition [3]: 1.78%
- activity change, negative = inhibition [4]: -14.5%
- activity change, negative = inhibition [5]: -2%

Structure (SMILES): C=C(C)[C@@H]1CC[C@]2(C)CC[C@]3(C)[C@H](CC[C@@H]4[C@@]5(C)CC[C@@H](O)C(C)(C)[C@@H]5CC[C@]43C)[C@@H]12
- activity change, negative = inhibition [1]: -2.42%
- activity change, negative = inhibition [2]: -7.54%
- activity change, negative = inhibition [3]: 8.77%
- activity change, negative = inhibition [4]: -19.7%
- activity change, negative = inhibition [5]: -14.3%

Structure (SMILES): CCCCN(CC)CCN1C(=O)c2cc3sccc3n2CC1(C)C(=O)NC1CCCCCCC1 (stereo not given)
- activity change, negative = inhibition [1]: 2.33%
- activity change, negative = inhibition [2]: 1.04%
- activity change, negative = inhibition [3]: -1.88%
- activity change, negative = inhibition [4]: 2.04%
- activity change, negative = inhibition [5]: -0.338%

Structure (SMILES): C=C1C2(C)CC3C4(C)C=CC(=O)OC(C)(C)C4CCC3(C)C1(C(=O)OC)C(=O)C(C)(O)C2=O (stereo not given)
- activity change, negative = inhibition [1]: 0%
- activity change, negative = inhibition [2]: 1.07%
- activity change, negative = inhibition [3]: 3.91%
- activity change, negative = inhibition [4]: -13%
- activity change, negative = inhibition [5]: 2.62%

Structure (SMILES): COc1cc(Nc2nc3c(S(=O)(=O)c4ccccc4)nnn3c3ccccc23)cc(OC)c1
- activity change, negative = inhibition [1]: -0.706%
- activity change, negative = inhibition [2]: 1.83%
- activity change, negative = inhibition [3]: 4.5%
- activity change, negative = inhibition [4]: 8.15%
- activity change, negative = inhibition [5]: 0.317%

Structure (SMILES): Cc1nnsc1C(=O)Nc1ccc(-n2nc(C(F)(F)F)cc2C(F)(F)F)cc1
- activity change, negative = inhibition [1]: -2.16%
- activity change, negative = inhibition [2]: 3.35%
- activity change, negative = inhibition [3]: 9.74%
- activity change, negative = inhibition [4]: -14.2%
- activity change, negative = inhibition [5]: -4.82%

Structure (SMILES): COc1ccccc1CN1C(=O)c2ccc(-c3ccccc3)n2CC1(C)C(=O)NC1CCCCC1 (stereo not given)
- activity change, negative = inhibition [1]: 1.57%
- activity change, negative = inhibition [2]: 2.01%
- activity change, negative = inhibition [3]: 3.32%
- activity change, negative = inhibition [4]: -4.81%
- activity change, negative = inhibition [5]: -1.11%

Structure (SMILES): CCC(C)NC(=O)c1ccc2c(=O)n(Cc3ccccc3)c3nn(Cc4cccc(F)c4)c(=O)n3c2c1 (stereo not given)
- activity change, negative = inhibition [1]: 2.95%
- activity change, negative = inhibition [2]: 0%
- activity change, negative = inhibition [3]: 2.11%
- activity change, negative = inhibition [4]: -0.255%
- activity change, negative = inhibition [5]: 4.05%

Structure (SMILES): CCCSc1nc(N[C@@H]2C[C@H]2c2ccc(F)c(F)c2)c2nnn([C@@H]3C[C@H](OCCO)[C@@H](O)[C@H]3O)c2n1
- activity change, negative = inhibition [1]: -28.5%
- activity change, negative = inhibition [2]: -13.2% and -4.71%
- activity change, negative = inhibition [3]: -43.4%
- activity change, negative = inhibition [4]: -55.5% and -53%
- activity change, negative = inhibition [5]: -42.1% and -30.6%

Structure (SMILES): CCOc1ccc(CN2C(=O)c3oc4ccccc4c3OCC2(C)C(=O)NC2CCCC2)cc1 (stereo not given)
- activity change, negative = inhibition [1]: 3.46%
- activity change, negative = inhibition [2]: 0.561%
- activity change, negative = inhibition [3]: 3.2%
- activity change, negative = inhibition [4]: 7.09%
- activity change, negative = inhibition [5]: 7.08%

Structure (SMILES): CCOc1ccc(N2C(=O)c3cc(-c4ccccc4)nn3CC2(C)C(=O)NCc2ccccc2OC)cc1 (stereo not given)
- activity change, negative = inhibition [1]: 2.27%
- activity change, negative = inhibition [2]: 1.83%
- activity change, negative = inhibition [3]: 6.34%
- activity change, negative = inhibition [4]: 6.49%
- activity change, negative = inhibition [5]: -2.73%

Structure (SMILES): Cc1ccc(N2C(=O)CSc3c(c4ccccc4n3C)C2C(=O)NCc2ccc(F)cc2)cc1C (stereo not given)
- activity change, negative = inhibition [1]: 0.753%
- activity change, negative = inhibition [2]: 0%
- activity change, negative = inhibition [3]: 8.72%
- activity change, negative = inhibition [4]: 4.68%
- activity change, negative = inhibition [5]: 3.02%

Structure (SMILES): COc1ccc2c(c1)c(NC(C)=O)c1n2CC(C)(C(=O)NC2CCCC2)N(CCC(C)C)C1=O (stereo not given)
- activity change, negative = inhibition [1]: 7.61%
- activity change, negative = inhibition [2]: 0.135%
- activity change, negative = inhibition [3]: 12.4%
- activity change, negative = inhibition [4]: 16%
- activity change, negative = inhibition [5]: 5.54%

Structure (SMILES): O=C(Nc1ccc([C@H]2OCC(=O)N(C3CCOCC3)[C@@H]2CO)cc1)c1cnccn1
- activity change, negative = inhibition [1]: -2.75%
- activity change, negative = inhibition [2]: -1.14%
- activity change, negative = inhibition [3]: -1.75%
- activity change, negative = inhibition [4]: -0.173%
- activity change, negative = inhibition [5]: 7.87%

Structure (SMILES): CNCCN(C)C(=O)C1CCCN(C2CCN(C3Cc4ccccc4C3)CC2)C1 (stereo not given)
- activity change, negative = inhibition [1]: -3.11%
- activity change, negative = inhibition [2]: -4.3%
- activity change, negative = inhibition [3]: -2.99%
- activity change, negative = inhibition [4]: -6.2%
- activity change, negative = inhibition [5]: -5.79%

Structure (SMILES): CC(C)C(=O)N1CCc2[nH]nc(C(=O)NCCCc3ccccc3)c2C1
- activity change, negative = inhibition [1]: -0.903%
- activity change, negative = inhibition [2]: 0.224%
- activity change, negative = inhibition [3]: -7.85%
- activity change, negative = inhibition [4]: -13.8%
- activity change, negative = inhibition [5]: 2.54%

Structure (SMILES): COc1cccc(CNC(=O)CCn2ccc3cc(S(=O)(=O)N4CCC(C)CC4)ccc32)c1
- activity change, negative = inhibition [1]: 4.32%
- activity change, negative = inhibition [2]: 0%
- activity change, negative = inhibition [3]: -1.2%
- activity change, negative = inhibition [4]: 1.1%
- activity change, negative = inhibition [5]: -1.85%

Structure (SMILES): CCc1cccc(NC(=O)Cn2nc3n(C)c(=O)c4ccc(C(=O)NC5CCCC5)cc4n3c2=O)c1
- activity change, negative = inhibition [1]: -2.36%
- activity change, negative = inhibition [2]: 0.657%
- activity change, negative = inhibition [3]: -4.11%
- activity change, negative = inhibition [4]: -4.88%
- activity change, negative = inhibition [5]: -2.13%

Structure (SMILES): Cc1noc(C)c1S(=O)(=O)N1CC(c2noc(C3CCCN3C)n2)C1 (stereo not given)
- activity change, negative = inhibition [1]: -1.2%
- activity change, negative = inhibition [2]: 1.64%
- activity change, negative = inhibition [3]: 0.383%
- activity change, negative = inhibition [4]: 2.97%
- activity change, negative = inhibition [5]: 1.59%
